Activation data for 48 compounds are collected here from PubChem BioAssay AID1645887 (National Center for Advancing Translational Sciences (NCATS), 2021).

Where “and” joins values, the source holds several entries; their conditions need not be identical. Equal entries are not always repeated. Out of some 16,000 compounds screened, about 40 (0.2%) were called active. Not shown: some 1% with an inconclusive outcome. Calls come from the whole dose curve; as a rule, active = well fitted activation curve with a large enough effect; inconclusive = small, poorly fitted or top-dose-only effect, or another doubt; inactive = no such curve, though single readings can be large or run the other way. Some of the results follow.
% is set by controls: 0 for no effect and ±100 for the full control effect.

This assay has as its target Rap guanine nucleotide exchange factor 4 (Homo sapiens) (UniProt Q8WZA2). The assay can be described thus: Validation qHTS for agonist of cAMP-regulated guanine nucleotide exchange factor 4 (EPAC2).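 Note: exchange makes BODIPY-GDP fluorescence drop when released from Rap1B; series mostly up to about 150 µM.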 As to conditions: EPAC2 Rap1B BODIPY-GDP exchange, fluorescence; activation: active compounds read high. The essentials: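 Signal normalized against 6.5 mM cAMP as agonist control. Mix of EPAC2 (100 nM), RAP1B-BODIPY-GDP (250 nM) and GDP (50 uM) was read kinetically at 480/540 nm, every 5 min over 30 min, after 5 min room-temperature incubation with compound.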
Sequence of UniProt Q8WZA2 (Q8WZA2 whole entry, looked up): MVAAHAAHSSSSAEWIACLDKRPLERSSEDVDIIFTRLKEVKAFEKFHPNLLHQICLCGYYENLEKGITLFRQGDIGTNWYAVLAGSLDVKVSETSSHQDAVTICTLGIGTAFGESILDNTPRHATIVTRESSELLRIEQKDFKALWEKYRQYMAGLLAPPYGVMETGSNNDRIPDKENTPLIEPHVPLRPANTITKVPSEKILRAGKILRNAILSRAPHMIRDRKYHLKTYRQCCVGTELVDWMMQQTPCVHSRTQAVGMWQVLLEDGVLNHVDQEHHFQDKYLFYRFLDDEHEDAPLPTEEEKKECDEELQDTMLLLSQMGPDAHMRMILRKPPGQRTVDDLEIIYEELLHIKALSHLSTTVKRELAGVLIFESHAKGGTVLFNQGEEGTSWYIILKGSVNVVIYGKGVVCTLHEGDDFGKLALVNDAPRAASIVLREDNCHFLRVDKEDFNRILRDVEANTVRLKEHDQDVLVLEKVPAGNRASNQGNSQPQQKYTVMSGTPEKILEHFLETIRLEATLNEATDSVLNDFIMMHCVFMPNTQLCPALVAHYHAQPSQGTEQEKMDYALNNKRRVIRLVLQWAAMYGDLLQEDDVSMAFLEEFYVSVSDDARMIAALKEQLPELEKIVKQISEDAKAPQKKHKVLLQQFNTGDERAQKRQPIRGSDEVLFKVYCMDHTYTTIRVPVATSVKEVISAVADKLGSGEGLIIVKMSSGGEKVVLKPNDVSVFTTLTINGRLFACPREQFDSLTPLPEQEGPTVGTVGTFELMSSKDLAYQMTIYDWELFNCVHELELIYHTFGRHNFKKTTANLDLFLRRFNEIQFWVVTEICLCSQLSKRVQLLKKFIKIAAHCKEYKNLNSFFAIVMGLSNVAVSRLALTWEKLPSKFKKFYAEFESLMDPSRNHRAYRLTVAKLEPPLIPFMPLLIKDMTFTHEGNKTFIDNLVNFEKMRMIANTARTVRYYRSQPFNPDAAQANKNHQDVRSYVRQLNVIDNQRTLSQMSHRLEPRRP
For orientation: Quantitative high-throughput screening tests each substance at several concentrations.
With `CNCCCCCCCCSc1nc(C(C)C)ccc1C(=O)c1cccs1`, the activation is inactive: -15.8%.

In the case of `OCc1cc2c(cn1)[nH]c1ccccc12`, the activation was inactive: 2.17%. Next, `CN1CCCC1CCOC(C)(c1ccccc1)c1ccc(Cl)cc1` (stereo not drawn): inactive: -16.9%. For `O=C(Nc1ccccc1)O[C@@H]1C[C@H]2CCCC(=O)N3CC[C@@H](C1)[C@@H]23`, the activation is inactive: -8.09%. The same measure for `COC[C@H](c1ccc(C(F)(F)F)cc1)N1CCN(C2(C)CCN(C(=O)c3c(C)ncnc3C)CC2)C[C@H]1C`: inactive: -6.13%; for `O=S(=O)(c1ccccc1)N1CCC2(CCCN(c3cccc(-c4ccccc4)c3)C2)CC1`: inactive: 11.2%. Take `CC(=O)N1CCC[C@H]1C(=O)NCC1Cc2cc(C)cc(-c3ccc(Cl)cc3)c2O1` (stereo partly drawn): the activation is inactive: -1.06%. For `COc1ncc2nc(CCc3ccccc3)c(=O)n(C)c2n1`, the activation is inactive: 2.44%. On to `COc1cccc(-c2cc3c(c(OC)c2)OCCN(S(=O)(=O)c2ccccc2OC(F)(F)F)C3)n1`, for which the activation is inactive: -15.3%. The same measure for `C=CCN1CCc2cc(O)c(O)cc2[C@H](c2ccccc2)C1`: inactive: -0.733%; for `COc1c2ccoc2nc2c(OC)c(OCC(O)C(C)(C)O)ccc12` (stereo not drawn): inactive: -12.1% and inactive: 4.47%. The same measure for `COc1cccc(Cn2c(=O)c(CCc3ccccc3)nc3cnc(N4CCNCC4)nc32)c1`: inactive: 9.21%; for `C[C@H]1C[C@H]2[C@@H]3CCC4=CC(=O)C=C[C@]4(C)[C@@H]3C(=O)C[C@]2(C)[C@@]1(O)C(=O)CO`: inactive: 3.67%; for `COc1ccc(CNc2ncncc2-c2ccc3c(c2)OCO3)c(OC)c1`: inactive: 6.24%. On to `CNc1ccnc(-c2cccc(NS(C)(=O)=O)c2)n1`, for which the activation is inactive: 1.54%. The same measure for `O=c1[nH]cnc2n[nH]nc12`: inactive: -9.8%; for `CCCc1ccc(C(=O)O)cc1`: inactive: 10.8%; for `C=C1C[C@H](OC(=O)C(C)(O)CCl)C2C(=C)C(=O)O[C@@H]2C2C1C[C@H](O)[C@]2(O)CCl` (stereo partly drawn): inactive: -18.1%. Next, `COc1ccc(CN2CCCC(n3cc(C(=O)N4CCCCC4)nn3)C2)c(OC)c1` (stereo not drawn): inactive: -20.1%. Next, `CSc1nc(N)c2ncn([C@@H]3O[C@H](COP(=O)(O)OP(=O)(O)OP(=O)(O)O)[C@@H](O)[C@H]3O)c2n1`: inactive: 15.6% and inactive: -23.4%; `CN1CCc2cc3c(cc2C(=O)Cc2ccc4c(c2C1)OCO4)OCO3`: inactive: 15.3%; `O=C(Nc1ccccc1)N1CC2(CCN(C(=O)c3cnccn3)CC2)C1`: inactive: -2.68%. As for `Cc1oc(-c2ccccc2NC(=O)c2cccnc2)nc1CNC(=O)C1CCCCCN1C` (stereo not drawn), the activation was inactive: -11.3%.

Turning to `CC[C@H]1OC(=O)[C@H](C)[C@@H](O[C@H]2C[C@@](C)(OC)[C@@H](O)[C@H](C)O2)[C@H](C)[C@@H](O[C@@H]2O[C@H](C)C[C@H](N(C)C)[C@H]2O)[C@](C)(O)C[C@@H](C)/C(=N\OCOCCOC)[C@H](C)[C@@H](O)[C@]1(C)O`, the activation was inactive: -27.6%.

In the case of `O=C1NC(=O)[C@@]2(CCOc3ccc(F)cc32)N1`, the activation was inactive: 21.1%. The same measure for `C=C(Br)COC(c1ccco1)[C@H](Cc1ccccc1)NC(=O)OC(C)(C)C` (stereo partly drawn): inactive: -12.7%; for `COc1ccc(C(=O)NCC2Cc3cccc(-c4ccc(S(C)(=O)=O)cc4)c3O2)c(OC)n1` (stereo not drawn): inactive: -18%; for `CO/N=C(/C(=O)N[C@H]1C(=O)N2C(C(=O)O)=C(COC(C)=O)CSC12)c1csc(N)n1` (stereo partly drawn): inactive: 0.516%. The same measure for `Nc1nc(F)nc2c1ncn2[C@@H]1O[C@H](CO)[C@@H](O)[C@@H]1O`: inactive: -0.223% and inactive: 3.09%. The same measure for `Cc1c(OCC(F)(F)F)ccnc1CS(=O)c1nc2ccccc2[nH]1` (stereo not drawn): inactive: -11.6% and inactive: -0.198% and inactive: -54.3%. With `C[C@H]1C=C2C=C[C@H](C)[C@H](CC[C@@H]3C[C@@H](O)CC(=O)O3)[C@H]2[C@@H](OC(=O)[C@@H](C)CCO)C1`, the activation was inactive: -43.7%. Next, `COc1ccc(/C=C/c2cc(O)cc(O[C@H]3OC(CO)C(O)C(O)C3O)c2)cc1` (stereo partly drawn): inactive: -22.7%; `COC(C)C(C(=O)OCC1=CCN2CC[C@H](O)[C@@H]12)C(C)C` (stereo partly drawn): inactive: -14.1%.

Turning to `CN(C)c1ccc(-c2cc(NCc3cccnc3)ncn2)cc1`, the activation was inactive: -7.87%. As for `Cc1sc2ccccc2[n+]1CC(=O)c1ccc(F)cc1`, the activation was inactive: -10.3%. Take `COc1ccc2[nH]cc(CCNc3ncncc3-c3ccccc3C(F)(F)F)c2c1`: the activation was inactive: -16.9%. In the case of `NC(N)=Nc1nc(CSCC/C(N)=N\S(N)(=O)=O)cs1`, the activation was inactive: -4.7%. The same measure for `CC(C)=CCCC(C)CCO` (stereo not drawn): inactive: 4.53%; for `CCCCC[C@H](O)/C=C/[C@@H]1[C@@H](C/C=C\CCCC(=O)O)[C@@H](O)C[C@@H]1O`: inactive: -3.58%. Next, `CN(C)c1cc(-c2cccc(NS(C)(=O)=O)c2)ncn1`: inactive: -16.6%.

Regarding `CC1OC(OCC2OC(Oc3c(-c4ccc(O)c(O)c4)oc4cc(O)cc(O)c4c3=O)C(O)C(O)C2O)C(O)C(O)C1O` (stereo not drawn), the activation is inactive: -5.62%. The same measure for `C#CCCCCCCCCCCCC(O)CC(O)CO` (stereo not drawn): inactive: -35.7%. Next, `CC[C@H]1OC(=O)[C@H](C)[C@@H](O[C@H]2C[C@@](C)(OC)[C@@H](O)[C@H](C)O2)[C@H](C)[C@@H](O[C@@H]2O[C@H](C)C[C@H](N(C)C)[C@H]2O)[C@](C)(O)C[C@@H](C)[C@@H]2N[C@@H](COCCOC)O[C@@H]([C@H]2C)[C@]1(C)O`: inactive: -12.6%; `COc1ccccc1-c1ccnc(-n2ncc(C(=O)NCCc3ccncc3)c2C)n1`: inactive: -1.92%.

On to `COc1ccccc1-n1cc(C(=O)NCCN2Cc3ccccc3OC(c3ccsc3)C2)cn1` (stereo not drawn), for which the activation was inactive: -10.8%. In the case of `COc1ccccc1C(=O)N[C@@H]1c2ccccc2C2(CCN(C(=O)c3ccnn3C)CC2)[C@H]1OC`, the activation was inactive: -10.2%. Next, `Nc1nc(=S)c2ncn([C@@H]3O[C@H](CO)[C@@H](O)[C@H]3O)c2[nH]1`: inactive: 12.3%; `c1csc(CNc2cc(-c3ccoc3)ncn2)c1`: inactive: 0.439%.
